# Source: PubChem BioAssay AID686978 (National Center for Advancing Translational Sciences (NCATS), 2013)
# Where “and” joins values, the source holds several entries; their conditions need not be identical. Equal entries are not always repeated. Hit rate of the full screen: of about 420,000 compounds, about 64,000 (15%) were called active. Inconclusive results, whose numbers are uncertain, are shown with a selection of clear calls. The call rests on the fitted dose curve; in most records, active means well fitted inhibition curve with a large enough effect; inconclusive means small, poorly fitted or top-dose-only effect; inactive means flat fitted curve, though single readings scatter. Potencies of inconclusive entries are left out as doubtful fits. Some structures have more than one record in an assay (separate samples or runs), and their calls can disagree.
# Test: qHTS for Inhibitors of human tyrosyl-DNA phosphodiesterase 1 (TDP1): qHTS in cells in absence of CPT; further: nearly all actives have a fitted effect of over 55% in size
# Conditions: DT40 Tdp1-/- hTDP1 cells, no CPT, ATP luminescence, 48 h; activity change, negative = growth inhibition: at 46.2 µM (top of the series) unless noted
# How it was run: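 Stably hTDP1-transfected Tdp1-null chicken DT40 cells were treated with library compounds minus camptothecin and grown for at least 48 hr at 37 °C, after which cellular ATP was quantified by luminescence.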
# On the % scale 0 is the no-effect control and ±100 the full control effect; potency means the concentration at half of the fitted maximal effect; tags describe the fitted curve by direction and shape.
Structure (SMILES),Potency,"activity change, negative = growth inhibition"
COc1cc(OC)cc(C(=O)N2CCC(n3c(C)nc4cc(F)ccc43)CC2)c1,"inconclusive [inhibitor, single point]",
CCc1[nH]nc(C(=O)N2CCCC(CNS(=O)(=O)c3cccs3)C2)c1C (stereo not drawn),,inactive: -1.36%
CCOC(=O)c1[nH]c2ccc(F)cc2c1NC(=O)CCN1CCOCC1,,inactive: 12.5%
CCNC(=O)C1(C)CCCN(C(=O)c2ccc(C(F)(F)F)nc2C)C1 (stereo not drawn),,inactive: 0.76%
c1ccc(N2CCN(c3ncccn3)CC2)cc1,,inactive: -15.7%
Cc1cc2c(c(=O)n1Cc1ccc3c(c1)OCO3)C(c1cccnc1)C(C#N)=C(N)O2 (stereo not drawn),,inactive: 0.21%
CC(CN1CCCC1)OC(=O)c1ccc(Br)cc1 (stereo not drawn),"inconclusive [inhibitor, full curve, poor fit]",
COc1ccccc1NC(=O)CSc1nc2c(oc3ccccc32)c(=O)n1Cc1ccco1,"inconclusive [inhibitor, partial curve]",
Clc1cccc(-n2cc(-c3ccccc3)c3c(NC4CCCC4)ncnc32)c1,"inconclusive [inhibitor, single point]",
Cn1cnc([N+](=O)[O-])c1Sc1ncnc2nc[nH]c12,"inconclusive [inhibitor, single point]",
CC(C)(C)C(=O)c1c(N)[nH]c(C(=O)c2ccccc2)c1-c1ccc(C(F)(F)F)cc1,active: 23.1 µM,
CC(NC(=O)/C=C/c1ccco1)c1nc2ccccc2n1Cc1c(Cl)cccc1Cl (stereo not drawn),"inconclusive [inhibitor, single point]",
CCN(CC)C(=O)c1csc(COCCO)n1,,inactive: -17.3%
CCN(c1ccccc1)S(=O)(=O)c1ccc(Cl)c(NC(=O)COC(=O)c2ccc(O)cc2)c1,"inconclusive [inhibitor, single point]",
CN(C)c1cccc(C(=O)OCCNC(=O)c2cccc(S(=O)(=O)N3CCOCC3)c2)c1,"inconclusive [inhibitor, single point]",
Cc1ccc(OCc2nc(-c3ccccn3)n[nH]2)cc1,active: 4.61 µM,
Cc1ccccc1OCC(=O)Nc1ccc(C)c(S(=O)(=O)N2CCCCCC2)c1,"inconclusive [inhibitor, single point]",
c1ccc(-c2cc3c(N4CCCCC4)ncnc3s2)cc1,"inconclusive [inhibitor, single point]",
CCCCN(CC)C(=O)CCCn1c(=O)c2cccn2c2ccccc21,active: 20.6 µM,
COc1cccc(N2CCN(c3ncnc4c3c(-c3ccccc3)cn4-c3ccc(F)cc3)CC2)c1,"inconclusive [inhibitor, single point]",
O=C(Nc1nnc(-c2ccccc2)o1)c1cccc(N2C(=O)CCC2=O)c1,"inconclusive [inhibitor, single point]",
O=C(NCc1cccc(Cl)c1)NCc1noc2ccccc12,active: 16.4 µM,
CN(CC(=O)Nc1cccc(S(=O)(=O)N2CCCC2)c1)CC(=O)Nc1ccc(F)c(F)c1F,"inconclusive [inhibitor, partial curve]",
C=CCON/C(CCC)=C1\C(=O)CC(C)(C)CC1=NC,,inactive: 1.21%
Nc1ncnc2c1ncn2-c1ccccc1Cl,,inactive: 1.8%

Structure (SMILES),Potency,"activity change, negative = growth inhibition"
c1cc2cc(-c3c(-c4ccc5c(c4)OCO5)noc3-c3ccsc3)ccc2[nH]1,inactive and active: 3.16 µM,
COc1ccccc1-n1c(SCC(=O)Nc2ccc(Cl)cc2)nc(O)c(Cc2ccccc2)c1=O,"inconclusive [inhibitor, single point]",
Cc1ccc(Cn2c(CCNC(=O)C(C)C)nc3ccccc32)cc1,"inconclusive [inhibitor, single point]",
C=C(C)C(=O)Nc1cccc(C2=NOC3(C2)C[C@@H](C(N)=O)N(C(=O)c2cc([N+](=O)[O-])cc([N+](=O)[O-])c2C)C3)c1 (stereo partly drawn),"inconclusive [inhibitor, single point]",
COc1ccc(C(=O)NCC(c2cccnc2)N2CCN(c3ccc(F)cc3)CC2)cc1OC (stereo not drawn),"inconclusive [inhibitor, single point]",
O=C(O)c1cccc(-n2cc(-c3cccc(C(F)(F)F)c3)cn2)c1,,inactive: -23.8%
CCc1ccc(NC(=O)N2CCN(c3ccccc3)CC2)cc1,"inconclusive [inhibitor, partial curve]",
CC(C)(C)c1nc(CN2CCCCC2)cc(CN2CCCCC2)c1O,"inconclusive [inhibitor, single point]",
COc1ccc2nc(N/C(N)=N/S(C)(=O)=O)nc(C)c2c1,,inactive: 8.59%
CC(=O)NC12CC3CC(C1)CC(C(=O)OCC(=O)c1cc(C)n(C)c1C)(C3)C2,"inconclusive [inhibitor, single point]",
O=C(/C=C/c1cc(Br)ccc1O)c1ccco1,active: 2.59 µM,
CSc1ccc(C(=O)C2CCCN(Cc3cccn3-c3cccnc3)C2)cc1 (stereo not drawn),active: 5.17 µM,
Cc1ccc(-c2cc(C(=O)OCC(=O)Nc3cc(C)on3)c3ccccc3n2)c(C)c1,"inconclusive [inhibitor, single point]",
Cc1ccccc1-n1c2nc(=O)n(C)c(=O)c-2cc2ccccc21,,inactive: -21.5%
O=C(CCc1ccc(S(=O)(=O)NCCc2ccccc2)cc1)Nc1ccc2c(c1)OCCO2,,inconclusive: -31.7% [inhibitor]
CC1CCCN(S(=O)(=O)c2ccc(NC(=O)CN3CCCCC3)cc2)C1 (stereo not drawn),,inactive: -24.1%
Cc1ccc(Cl)cc1N(C)C(=O)C1CCCN(c2ncnc3onc(-c4ccc(F)cc4)c23)C1 (stereo not drawn),active: 4.11 µM,
Cc1ccc(-c2ccc(S(=O)(=O)N3CC(C)OC(C)C3)cc2)cc1 (stereo not drawn),"inconclusive [inhibitor, full curve, poor fit]",
O=C(NCC(=O)N(CC1CCCO1)C(C(=O)NC1CCCCC1)c1ccccc1)c1ccco1 (stereo not drawn),,inactive: -2.93%
CCNc1nc(NCC)nc(SCCOC(=O)Nc2ccccc2)n1,"inconclusive [inhibitor, single point]",
O=C(Cc1ccc(Cl)cc1)NCC(=O)N1CCN(Cc2ccccc2)CC1,"inconclusive [inhibitor, single point]",
COCCn1c(C)cc(C(=O)COC(=O)c2ccc(Cl)c(S(N)(=O)=O)c2)c1C,"inconclusive [inhibitor, single point]",
CCOC(=O)C1CCN(C(=O)Nc2cccc(Cl)c2)CC1,,inactive: -3.33%
COc1ccc(Cl)cc1S(=O)(=O)NC(C)C(=O)NCCCn1ccnc1 (stereo not drawn),,inactive: -15.2%
O=C(NCCS(=O)(=O)c1ccc(Br)cc1)c1ccc(F)cc1,,inactive: 15.1%

Structure (SMILES),Potency,"activity change, negative = growth inhibition"
CN(C)c1ccc(N2C(=NC(=O)CCC3CCCC3)SC3CS(=O)(=O)CC32)cc1 (stereo not drawn),,inactive: -28.1%
NC(=O)C1CCCNC1 (stereo not drawn),,inactive: -7.62%
COc1ccc(-c2nc(SCC(=O)NCc3ccccc3Cl)n[nH]2)cc1,active: 7.31 µM,
CCOC(=O)c1c(NC(=O)c2cc3n(n2)C(C(F)(F)F)CC(c2ccccc2)N3)sc(C)c1C (stereo not drawn),active: 14.6 µM,
Fc1ccc2c(c1)C1OCCCC1C(c1ccccc1)N2 (stereo not drawn),active: 18.4 µM,
CCN1C(=O)CC2(C[N+]3(C)CCC2CC3)C1=O (stereo not drawn),,inactive: 11.7%
COc1ccc2c(c1OC)C(=O)N1N=C(c3ccc(Br)cc3)CC21 (stereo not drawn),"inconclusive [inhibitor, single point]",
Cc1ccc2nc(NC(=O)Cn3cc4c(n3)CCCCC4)sc2c1,,inactive: 2.48%
COCCOC(=O)c1c(C)oc2ccc(O)c(CN3CCC(C)CC3)c12 (tested in a mixture with another compound),"inconclusive [inhibitor, single point]",
Cn1c(=O)c2c(nc(SCCN3CCOCC3)n2Cc2ccc(Cl)cc2)n(C)c1=O,"inconclusive [inhibitor, single point]",
O=C(NCc1ccc(F)cc1)c1cc2n(n1)C(C(F)(F)F)CC(C1CC1)N2 (stereo not drawn),"inconclusive [inhibitor, single point]",
Nc1c2c(nc3sc4c(c13)CCCCC4)CCCCC2,"inconclusive [inhibitor, single point]",
N/C(=N\c1nc2c(c(=O)[nH]1)CCC2)Nc1cccc2ccccc12,"inconclusive [inhibitor, single point]",
CCC1CCCCN1C(=S)NC(=O)c1cc(Br)ccc1Cl (stereo not drawn),"inconclusive [inhibitor, single point]",
CC1CCc2cc(F)ccc2N1C(=O)C1(C)CC1(Cl)Cl (stereo not drawn),"inconclusive [inhibitor, single point]",
CCC(=O)N1CCC(C)(C(=O)Nc2ccc3c(c2)OCO3)C1 (stereo not drawn),,inactive: -6.4%
CCOC(=O)C1CCN(C(C(=O)NC2CCCCC2)c2ccc(OC)cc2)CC1 (stereo not drawn),"inconclusive [inhibitor, single point]",
CC(C(=O)Nc1ccccc1)N1C(=O)c2ccccc2C1=O (stereo not drawn),,inactive: 8.07%
COCCNC(=O)CCC1CCN(Cc2ccc(-c3ccccc3)cc2)CC1,"inconclusive [inhibitor, single point]",
COc1cc(OC)cc(-c2c(-c3ccsc3)c3cc(Br)ccc3n2C)c1,"inconclusive [inhibitor, single point]",
CCn1c(CSc2nc3ccccc3s2)nnc1SCC(=O)c1ccc(O)cc1O,,inactive: -5.71%
O=C(Cn1nc(-c2ccc(Cl)cc2)ccc1=O)NCCc1ccccc1,"inconclusive [inhibitor, single point]",
COc1ccccc1NC(=O)c1ccc2c(c1)nnn2C,,inactive: -3.66%
